Laboratory results as given in the supplement of paper PMC7826260.
This is one part of the list. One pool of 16,384 single-stranded DNAs met each Rep nickase domain in vitro for 1 h at 37 °C with 3 µM enzyme; only the middle of the 90-letter strands is printed. A value is the log2 ratio of uncut reads to the pool without enzyme; strong cutting gives strongly negative numbers. There is no active / inactive call. Because reads are shares of a total, they shift together, so uncut sequences can rise above 0 when many others are cut.

How the values were obtained:
Test in all cases: uncleaved DNA left, log2 of reads against the no-enzyme library (log2 ratio); higher = less cleavage (more negative = more Rep cleavage of the k-mer); sequences stand for … in CTCGTCCG…ACCGGAGA
[1] = tested on: T1, Rep nickase domain of Muscovy duck circovirus
T1 sequence (Rep 1-111, printed without the tag): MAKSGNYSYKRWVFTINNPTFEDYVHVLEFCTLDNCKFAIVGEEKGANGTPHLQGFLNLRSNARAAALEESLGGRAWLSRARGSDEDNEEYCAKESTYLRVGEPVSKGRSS
Method: (§1)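 A pool of 90-nt single-stranded DNAs with seven random bases just before the constant AC of the nick site (name = the seven bases) was cut by 3 µM recombinant His6-SUMO-tagged Rep nickase domain (300 nM DNA, 50 mM HEPES pH 8.0, 50 mM NaCl, 1 mM MnCl2, 1 h, 37 °C, three replicates). Uncut DNA was amplified and sequenced.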

[2] = tested on: T2, Rep nickase domain of banana bunchy top virus
T2 sequence (Rep 1-94, printed without the tag): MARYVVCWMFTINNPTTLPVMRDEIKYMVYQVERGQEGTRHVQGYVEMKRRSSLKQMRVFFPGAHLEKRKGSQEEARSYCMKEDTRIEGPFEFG
Method: as §1

[3] = tested on: T3, Rep nickase domain of cabbage leaf curl virus
T3 sequence (Rep 1-116, printed without the tag): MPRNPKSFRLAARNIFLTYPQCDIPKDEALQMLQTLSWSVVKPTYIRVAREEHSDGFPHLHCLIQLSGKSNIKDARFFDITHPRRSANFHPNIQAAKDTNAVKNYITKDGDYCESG
Method: as §1

[4] = tested on: T4, Rep nickase domain of chickpea chlorotic dwarf virus
T4 sequence (Rep 1-124, printed without the tag): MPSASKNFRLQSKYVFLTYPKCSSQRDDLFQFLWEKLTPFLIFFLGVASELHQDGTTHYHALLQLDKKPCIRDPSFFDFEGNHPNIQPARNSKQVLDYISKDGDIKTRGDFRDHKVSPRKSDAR
Method: as §1

[5] = tested on: T5, Rep nickase domain of faba bean necrotic yellows virus
T5 sequence (Rep 1-98, printed without the tag): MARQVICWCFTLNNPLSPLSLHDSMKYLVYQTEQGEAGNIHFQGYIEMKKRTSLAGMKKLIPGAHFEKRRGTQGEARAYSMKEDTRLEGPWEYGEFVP
Method: as §1

[6] = tested on: T6, Rep nickase domain of maize striate mosaic virus
T6 sequence (Rep 1-117, printed without the tag): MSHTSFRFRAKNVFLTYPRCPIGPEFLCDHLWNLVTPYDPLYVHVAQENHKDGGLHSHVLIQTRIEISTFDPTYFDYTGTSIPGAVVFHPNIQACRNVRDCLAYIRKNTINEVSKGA
Method: as §1

[7] = tested on: T7, Rep nickase domain of porcine circovirus 2
T7 sequence (Rep 2-116, printed without the tag): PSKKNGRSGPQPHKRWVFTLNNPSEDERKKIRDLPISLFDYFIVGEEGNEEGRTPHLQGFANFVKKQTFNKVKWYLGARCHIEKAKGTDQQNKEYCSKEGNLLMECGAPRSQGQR
Method: as §1

[8] = tested on: T8, Rep nickase domain of tomato golden mosaic virus
T8 sequence (Rep 1-124, printed without the tag): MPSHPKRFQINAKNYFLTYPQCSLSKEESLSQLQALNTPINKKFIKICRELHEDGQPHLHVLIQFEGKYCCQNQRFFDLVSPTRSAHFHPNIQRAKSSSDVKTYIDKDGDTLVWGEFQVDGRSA
Method: as §1

[9] = tested on: T9, Rep nickase domain of tomato yellow leaf curl virus
T9 sequence (Rep 1-136, printed without the tag): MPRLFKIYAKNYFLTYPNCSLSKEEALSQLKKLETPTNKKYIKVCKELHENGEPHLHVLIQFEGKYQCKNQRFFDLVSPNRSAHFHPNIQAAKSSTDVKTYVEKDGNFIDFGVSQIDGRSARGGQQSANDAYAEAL
Method: as §1

[10] = tested on: T10, Rep nickase domain of wheat dwarf virus
T10 sequence (Rep 1-137, printed without the tag): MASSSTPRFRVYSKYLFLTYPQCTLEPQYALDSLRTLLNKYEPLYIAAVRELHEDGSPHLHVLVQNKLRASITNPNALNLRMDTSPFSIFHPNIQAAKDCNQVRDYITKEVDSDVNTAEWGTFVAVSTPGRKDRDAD
Method: as §1

Sequence	uncleaved DNA left (log2) [1]	uncleaved DNA left (log2) [2]	uncleaved DNA left (log2) [3]	uncleaved DNA left (log2) [4]	uncleaved DNA left (log2) [5]	uncleaved DNA left (log2) [6]	uncleaved DNA left (log2) [7]	uncleaved DNA left (log2) [8]	uncleaved DNA left (log2) [9]	uncleaved DNA left (log2) [10]
ATGAGCC	-0.0254	-0.0516	-0.0065	0.0109	0.00999	-0.576	-0.127	-0.0787	0.00749	-0.046
TTCCGTG	0.0352	0.123	0.333	-0.00174	0.0471	-0.0519	0.0961	-0.0513	0.174	0.127
ACTCCCG	-0.0257	0.0544	-0.595	0.317	-0.027	-0.673	0.058	0.0912	0.0513	0.0752
CTCACAC	0.0333	-0.0818	-0.00343	-0.572	0.0181	-0.601	0.0453	-0.161	-0.104	-0.0704
CACAGTT	0.0821	-0.147	-0.493	-0.726	0.0187	-0.0982	-2.17	-0.00358	0.0216	-0.194
AGGACTC	-0.0616	-0.0671	0.469	1.45	-0.0534	1.86	0.083	-0.106	0.0569	0.162
CGGAAAA	-0.16	-0.0725	0.113	0.403	-0.147	-0.113	-0.0715	-0.0624	-0.0105	0.0263
CCTGAAT	0.0523	0.044	0.0218	-0.285	-0.0286	-0.324	-0.292	-0.0447	-0.0389	0.0158
GGTCTTA	-0.0436	0.206	0.475	1.05	0.0616	1.94	0.087	0.163	0.167	0.152
GTGGTAG	0.186	0.166	0.306	0.471	0.191	0.189	0.186	0.224	0.16	0.131
GGGCGTT	0.0886	0.0157	0.872	1.85	0.119	2.23	0.0925	-0.00266	-0.0263	0.135
AGCCATT	-0.0198	-0.049	0.413	-0.052	0.123	0.39	-0.307	0.0617	0.0202	0.0555
CGTCGAT	0.0701	-0.0788	0.076	0.262	-0.224	0.131	-0.0463	0.101	-0.0883	-0.0991
CAACTCC	-0.0865	0.0339	-0.222	-0.561	-0.0759	0.546	0.000741	-0.0203	-0.0217	0.025
ATAAACT	0.131	-0.0279	-0.11	-2.62	0.029	-0.918	-0.0778	0.125	-0.0312	-0.0334
